Results as given in PubChem BioAssay AID760 (NMMLSC, 2007).
About 360 (0.19%) of roughly 190,000 compounds were called active. Inconclusive means that the source gave no clear call. Such entries were picked first, then a sample of the others.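 Rule for the calls: active = GTP binding activity at least 20 points away from 100%, either lowered or raised; inconclusive = signal likely due to the compound's own green fluorescence; inactive = the rest.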

molecular target: Ras-related protein Rab-2A (Canis lupus familiaris) (UniProt P61105); assay: Rab2 wt fluorescent GTP binding changes, either direction – biochemical, dog, bead-based flow cytometry, multiplex, primary screen (AID 760); conditions: GST-Rab2 wt beads, Bodipy-GTP binding, at 10 µM;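 note: 0% = beads with excess unlabeled GTP and 100% = no-compound control corrected for plate trend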

GTP binding activity, inconclusive:
CC(C)N(C(=O)Cn1cnc2cc([N+](=O)[O-])ccc2c1=O)C(C)C 77%
Cc1ccc(CN2C(=O)CCC2C(=O)NCc2ccccc2Cl)cc1 (centres undefined) 99%
CCOc1cc(S(=O)(=O)NCc2ccccn2)ccc1Cl 100%
N#C/C(=C/c1ccccc1[N+](=O)[O-])c1nc(C2CC2)cs1 93%
CSCCC(NC(=O)c1ccco1)C(=O)NCc1ccc(F)cc1 (centres undefined) 102%
CC(=O)Nc1ccc(S(=O)(=O)NCCc2ccccn2)cc1 97%
Nc1c(C(=O)NCc2ccco2)sc2nc3c(cc12)C(=O)CCC3 92%
CN1CCN(C2=C(Cl)C(=O)N(Cc3ccccc3)C2=O)CC1 105%
O=C(CSCc1nc2c(nnn2Cc2ccc(F)cc2)c(=O)[nH]1)Nc1cccc(C(F)(F)F)c1 92%
CCC1=NN2C(=N)/C(=C\c3cccn3-c3c(C)cccc3C)C(=O)N=C2S1 84%
Cc1cc(C)n(-c2ccc(C(=O)Nc3cccc(S(=O)(=O)N(C)C)c3)cc2)n1 88%
O=C(Nc1ccccc1[N+](=O)[O-])c1nc[nH]c1C(=O)NCCO 91%
O=C(Nc1ccccc1C(=O)O)c1ccc(Br)c(S(=O)(=O)NCc2ccccc2)c1 91%
C=CCNC(=O)/C(=C\C=C\c1ccccc1)NC(=O)c1ccc(OCCCC)cc1 88%
O=C(NCc1ccncc1)C(=O)NCC(c1ccco1)N1CCN(c2ccc(F)cc2)CC1 (centres undefined) 101%
CCOc1ccc(NC(=O)c2ccc(NC(=O)COC(=O)Cc3ccc(OC)cc3)cc2)cc1 96%
COc1ccccc1NC(=O)c1ccccc1SC 106%
CCCN(C(=O)CSc1nnc(-c2ccoc2C)n1N)C1CCS(=O)(=O)C1 (centres undefined) 104%
CC(=O)c1cccc(S(=O)(=O)Nc2cccc(S(=O)(=O)NC3=NCCC3)c2)c1 100%
Cc1cccc(-n2c(SCC(N)=O)nnc2-c2ccccn2)c1C 105%
O=C(NNC(=O)C1CCN(c2ncccn2)CC1)c1ccncc1 95%
Fc1ccc(Oc2nc(-c3ccccc3)nnc2C(F)(F)F)cc1 105%
COc1ccccc1NC(=O)c1ccc2nc(-c3ccccc3)c(-c3ccccc3)nc2c1 104%
COC(=O)COc1ccc(/C=C2/SC(=O)N(CC(=O)N3CCCC3)C2=O)cc1Br 104%
CCn1cc(C(=O)NCc2ccco2)c(=O)c2cc(S(=O)(=O)N3CC(C)CC(C)C3)ccc21 (centres undefined) 93%
NC(=O)c1cccnc1Oc1cccc(Cl)c1 104%
CC1Cc2ccccc2N1C(=O)CSc1nnc2c(n1)[nH]c1ccc(F)cc12 (centres undefined) 84%
COc1ccccc1/C=C1\S/C(=N/NC(=O)c2cccc(Br)c2)NC1=O 90%
O=C(/C=C/c1ccc(Cl)cc1Cl)NCCSCc1ccccc1 92%
CC(NC(=O)/C(C#N)=C1\N=C(NC(=O)c2cccs2)c2ccccc21)c1ccccc1 (centres undefined) 102%
O=C(CCCOc1ccccc1)NCc1ccco1 106%
Cc1ccc2nc3c(cc(C(=O)NC4CCCC4)c(=N)n3CCCn3ccnc3)c(=O)n2c1 91%
CCn1c(OC)nc2c1c(=O)n(C)c(=O)n2C 92%
Cc1ccc(C(=O)Nc2ccc3c(c2)OCO3)cc1S(=O)(=O)N1CCCC1 83%
CCN(C(=O)Cn1cnc2cc([N+](=O)[O-])ccc2c1=O)C1CCS(=O)(=O)C1 (centres undefined) 83%
Cc1nnc(SCC(=O)c2c(N)n(Cc3ccccc3)c(=O)n(C)c2=O)n1C 91%
CCCn1c(N)c(C(=O)CSc2nc3ccccc3c(=O)n2Cc2ccccc2)c(=O)[nH]c1=O 93%
Cc1ccc(CSc2ccc3nnc(-c4cccnc4)n3n2)cc1 89%
Cc1nc2ccccc2c(=O)n1/N=C/c1ccc(O)cc1O 94%
CCOC(=O)N1CCN(C(=O)c2ccc(Cn3c(=S)[nH]c4cc(OCC)c(OCC)cc4c3=O)cc2)CC1 88%
COc1cc(OC)c(C2N(C)c3ccccc3N2C)cc1OC 102%
COc1cccc(/C=C2\SC(=S)N(NC(=O)c3ccncc3)C2=O)c1 71%
O=C(CSc1nnc(CNC(=O)c2cccs2)o1)NC1CCCC1 101%
NC(=O)CSc1nnc(-c2ccc(O)cc2)n1Cc1ccco1 77%
COc1ccc(N(CC(=O)O)S(=O)(=O)c2ccccc2[N+](=O)[O-])c(OC)c1 92%
Cc1ccc(C(=O)Nc2ccc(Br)cc2)cc1S(=O)(=O)Nc1ccccn1 87%
c1ccc(C2=Nn3c(nnc3-c3ccncc3)SC2)cc1 104%
COc1cc(/C=N/NC(=O)c2cn(-c3cccc(C)n3)cn2)ccc1O 81%
COc1ccc(O)c(CNc2ccccc2F)c1 94%
CCC(Sc1nc2cc3c(cc2c(=O)n1Cc1ccco1)OCO3)C(=O)Nc1ccccc1OC (centres undefined) 94%
CN(C)c1ccc(/C=C/C(=O)c2ccc3c(c2)OCCO3)cc1[N+](=O)[O-] 90%

GTP binding activity, inactive:
COC(=O)c1sc2[nH]c(=S)n(N)c(=O)c2c1C 100%
Cc1cccc(NC(=O)CSc2nc3[nH]ncc3c(=O)[nH]2)c1 94%
COc1cccc(NC(=O)Nc2nccc(C)n2)c1 100%
COCCCNc1c2c3c(cccc3[nH]c1=O)C(=O)c1ccccc1-2 82%
CN(C(=O)CSc1nnc(-c2ccccc2)o1)c1c(N)n(Cc2ccccc2)c(=O)[nH]c1=O 94%
COc1ccc(N(C(=O)c2cnccn2)C(C(=O)NC2CCCCC2)c2ccc(O)cc2)cc1 (centres undefined) 98%
COc1cccc(CNC(=O)CCC2CCCN(c3cc(C)nc(N4CCCC4)n3)C2)c1 (centres undefined) 99%
Cc1ccc(NC(=S)N(Cc2ccco2)C(C)c2cccs2)cc1 (centres undefined) 101%
CS(=O)(=O)N1CCC(C(=O)N2CCN(c3ccccc3F)CC2)CC1 99%
Cc1cccc(-c2nnc(NC(=O)c3ccc(N4C(=O)CCC4=O)cc3)s2)c1 103%
Cc1ccc(S(=O)(=O)/N=c2\ccc(Cl)cn2C(F)F)cc1 98%
CCCc1ccccc1OCCNC(=O)c1cc(=O)n(C)c(=O)n1C 98%
O=C(c1ccco1)c1cn(CC(=O)N2CCCCCC2)c2ccccc12 98%
COc1ccccc1N(CC(=O)NC1CCCC1)C(=O)c1oc(C(C)(C)C)cc1C 99%
Cc1cc(NC(=O)CN2CCc3ccccc3C2)nc2c1c(=O)oc1ccccc12 92%
CC(C)N(CCc1ccncc1)C(=O)Nc1ccc(Cl)c(Cl)c1 99%
CCc1cccc(C)c1NC(=O)COC(=O)c1ccc2c(c1)S(=O)(=O)c1ccccc1C2=O 95%
CS(=O)(=O)N1CCN(c2ccccc2NC(=O)C(c2ccccc2)c2ccccc2)CC1 99%
Cc1noc(NC(=O)c2ccccc2C(F)(F)F)c1C#N 96%
O=C(O)CN(c1ccccc1)S(=O)(=O)c1cc(C(F)(F)F)cc(C(F)(F)F)c1 95%
CC(=O)c1ccccc1NC(=O)Cn1c(=O)cnc2ccccc21 99%
CN(C)c1ccnc(N(Cc2ccccc2)Cc2ccccc2)c1C#N 97%
COc1ccc(S(=O)(=O)N2CCC(C(=O)Nc3ccc(F)cc3)CC2)c2cccnc12 97%
CCOC(=O)Cc1csc(NC(=S)NC(=O)C(C)(C)C)n1 99%
COc1cc(/C=C/C(=O)O)cc(S(=O)(=O)NCc2ccc3c(c2)OCO3)c1OC 99%
Cc1ccc(OCCn2cnc(Cl)c2Cl)cc1 98%
O=C(O)COc1ccccc1/C=N/Nc1ccc(S(=O)(=O)Nc2ccc(Cl)cc2)cc1[N+](=O)[O-] 84%
Cc1oc(-c2cccs2)nc1CN1CCC(CO)(CCOc2ccccc2)CC1 99%
CC(C)Oc1cccc(C(=O)C2CCCN(C(=O)CCn3cnnn3)C2)c1 (centres undefined) 102%
COc1cc(C(C)=O)ccc1Oc1ncnc2c1cnn2-c1ccc(F)cc1 99%
COc1cc(CN(C2CCCCC2)S(=O)(=O)c2ccc(S(=O)(=O)N(C)C3CCCCC3)cc2)cc(OC)c1OC 101%
CC1CCc2c(sc(NC(=O)COC(=O)c3ccc(O)cc3)c2C#N)C1 (centres undefined) 93%
CC(C)C(NC(=O)C1CCCCC1)C(=O)NCCc1ccccc1 (centres undefined) 96%
COc1ccc(-c2cc(C(F)(F)F)n3nc(C(=O)O)cc3n2)cc1OC 80%
Fc1ccc(-c2c[nH]c(=S)n2Cc2ccccc2)cc1 95%
COc1ccc(CN=C(Nc2ccccc2)SC2CC(=O)N(C)C2=O)cc1 (centres undefined) 102%

GTP binding activity, active:
COc1ccc2[nH]c3nc(SCC(=O)Nc4ccc5c(c4)OCO5)nnc3c2c1 72%
Cc1c(C(=O)N/N=C/c2ccc(O)c(Br)c2)sc(N)c1C#N 79%
